Over roughly 33,000 sequences, “E-score (-0.5 to 0.5)” has its median near -0.041; the highest 2% begin near 0.37. Some of the results follow.
biological target: T1, Ecm22 (UniProt Q05958); experiment: PBM E-score (8-mer binding enrichment) (E-score (-0.5 to 0.5)); higher = stronger / more preferred TF binding; most listed sequences are background and not binding sites; details: protein concentration: 200 nM; construct: GST-full length
T1 sequence: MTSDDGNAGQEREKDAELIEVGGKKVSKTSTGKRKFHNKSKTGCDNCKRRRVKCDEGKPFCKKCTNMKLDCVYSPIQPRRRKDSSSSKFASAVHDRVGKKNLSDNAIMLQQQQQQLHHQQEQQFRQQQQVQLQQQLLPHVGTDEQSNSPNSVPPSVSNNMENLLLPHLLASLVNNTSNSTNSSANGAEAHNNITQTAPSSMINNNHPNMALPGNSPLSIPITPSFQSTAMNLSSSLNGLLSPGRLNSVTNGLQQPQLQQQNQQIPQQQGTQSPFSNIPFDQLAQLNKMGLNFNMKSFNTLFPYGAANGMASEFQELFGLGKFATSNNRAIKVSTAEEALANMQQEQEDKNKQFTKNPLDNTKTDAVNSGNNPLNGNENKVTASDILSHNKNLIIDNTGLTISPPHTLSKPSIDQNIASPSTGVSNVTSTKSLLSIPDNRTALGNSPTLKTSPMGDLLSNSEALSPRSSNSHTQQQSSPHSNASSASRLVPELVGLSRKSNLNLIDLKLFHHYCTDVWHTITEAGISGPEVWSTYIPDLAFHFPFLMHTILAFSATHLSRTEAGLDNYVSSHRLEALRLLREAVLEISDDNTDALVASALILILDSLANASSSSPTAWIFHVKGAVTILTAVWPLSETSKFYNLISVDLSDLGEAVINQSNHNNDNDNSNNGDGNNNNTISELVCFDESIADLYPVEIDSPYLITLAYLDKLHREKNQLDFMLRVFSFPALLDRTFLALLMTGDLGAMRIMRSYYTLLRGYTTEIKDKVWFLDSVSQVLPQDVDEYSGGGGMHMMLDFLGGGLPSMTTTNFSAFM
Procedure, shortened: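 For each ungapped eight-base word taken together with its reverse complement, the Universal PBM Analysis Suite assigned an E-score. Binding data came from GST-tagged yeast transcription factors, applied at about 100-200 nM, on universal all-10-mer Agilent arrays made double-stranded by primer extension. Fluorescent anti-GST marked bound protein, and scans were normalised with masliner.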

Sequence	PBM E-score
ATCACACC	-0.0607
CATGTGGA	-0.121
GGGCTCAC	-0.188
ACCAGGTC	-0.198
AGACGAAC	0.295
CTCTACAC	-0.0808
GCTCTGAA	-0.0872
ATCCGGGA	-0.0993
AGGATATC	-0.0716
AGTGTCCG	0.0467
ATAGTCAC	0.113
AAGGTCCC	-0.0975
ACGGTAAC	0.151
GCCACAAA	0.0966
ACGAATCT	0.297
CTTGATCA	-0.0854
CAGACCGA	0.14
CGATTCAA	0.086
CCTATGTA	0.0158
AGCAGGTA	-0.215
GTATAGAC	0.263
CGGCGCTA	-0.0667
ACCAAGGC	-0.171
CGCAAACG	0.348
CAAACCGG	-0.0909

Sequence	PBM E-score
GCAGATGA	-0.129
ATTAAATA	0.0128
CCTGCAAC	-0.104
ATACAGGC	-0.112
ATTATCAG	-0.181
AGATGTAC	0.0567
AGGGTAAC	0.00028
CGATGAGA	0.0548
CGCATAAG	0.136
AAGATACG	0.368
CATACTCC	-0.155
AGTTGCTG	-0.068
GCTGAAAC	-0.0362
AGACTCGC	0.0569
ACGGGGCA	0.114
AATGCTGG	-0.0144
GACAGCTA	-0.115
ATGAGTCG	0.129
AAACCAAG	0.0355
ATTCTGGG	-0.192
CCCGCGGA	-0.211
AATTGCTA	-0.0544
CTCCTCCC	-0.103
CCTTACGC	0.205
ACCCCCGT	-0.048

Sequence	PBM E-score
CATATTAC	-0.0537
AATTACTA	0.0182
CATTAAGA	-0.0826
GGGCTCTA	0.0124
ACATAAAG	-0.0723
AGCAGCCC	-0.182
TATGCAGA	0.0611
CGATACCG	0.05
AAGTAGGA	-0.18
ACAGGTTC	-0.0673
CCCATCGA	-0.0449
CGATATGA	0.038
GTAAGTGA	0.134
ACTTGCTA	-0.215
GGTCGGAA	0.161
AGGACGTA	-0.0985
ATGCACAG	-0.0432
CAGTCAAC	0.0317
AAAACAGG	-0.288
AGCCTGAG	-0.224
CAGTTTTC	-0.0483
AGACAACC	-0.0137
AATGTCAA	-0.135
ATATTTAG	-0.121
GATCCGGA	0.042

Sequence	PBM E-score
ATAGCATC	-0.162
ATACGGCG	0.406
AATTTCGC	0.116
CGCCAGAA	0.171
CATTCCAA	-0.0774
TTAGGAAA	-0.227
AAGCTCCA	-0.0661
ACCGGCCC	-0.085
CTAGAAGA	-0.0952
AGGAATAC	0.0181
TGGGGCAA	-0.172
GCGGTCGA	0.202
CGGGTATC	0.105
GGGTTATA	-0.0775
ATACACAG	-0.0736
CATAAAGC	-0.164
GCATCGAC	0.0138
TAACCCCA	-0.181
CGGCCACC	-0.135
CCAATGAC	-0.169
GATCGTTA	0.211
CCAGGCGA	-0.359
ATCAGCTG	0.0299
CTTCCGAA	0.0953
GATGACGA	0.0108

Sequence	PBM E-score
AGGACACA	-0.0101
CACCAGAA	0.0178
TCCTAAAA	-0.0284
ATACCAAC	0.00422
AATTGCTG	0.0491
ACACGGCT	-0.0933
GGAGACGA	0.217
CCCTTGCA	-0.21
GCCATGAA	-0.149
CATACGCG	0.269
ATGCGGCC	-0.082
GTCAGACA	-0.161
TCTAACAA	-0.0866
TCCCGGCA	-0.0828
CCAATCAC	0.0721
CAAGAAAG	-0.029
CCACCCCC	-0.252
CTTGTATA	-0.0567
AGGAACCA	-0.167
GTCTGTGA	-0.0168
AGTACTGC	-0.0559
ATGTGCTG	-0.121
AGCCCTGA	-0.316
AGGAATCA	-0.0892
CCTTTGCG	0.0545

Sequence	PBM E-score
AATTCTAT	-0.104
GGCCCGTA	0.295
ACTGAATC	-0.0645
GAGTCGTA	0.43
GTTGTGTA	0.158
CTTCACCA	-0.258
ACACTCAG	-0.0964
AGGAAATA	0.108
TGTCAAAA	-0.124
ACAGTGTC	0.00024
CACTTCCC	-0.128
ATTTTGGA	-0.0949
AATTGTAT	-0.0868
AAAAAAGG	-0.119
CTGAAATC	-0.0402
CTCTAGGA	-0.3
CAGGACAA	0.0683
GAAAATCA	0.08
CCGGCCGC	-0.348
CCGTACGA	0.445
CCCACGTA	0.0287
AGTCATGC	0.0199
GTGGGCGA	-0.205
GTATTCGA	0.118
ACGGATCT	0.0941

Sequence	PBM E-score
CCGGAGAC	0.071
ATAGAACC	-0.199
CAGAGGAC	-0.085
ACTAGTAT	0.0326
ACAGACCA	-0.0504
GCGTTGTA	0.0998
CCATGAAA	-0.132
CTAGCCAC	-0.257
AGCTACGC	0.141
TAAAGAAA	0.00425
ACGTTAGG	-0.0037
ACGAACGC	0.362
CGCGGATA	0.188
ACTGAAAA	0.105
ATCACCAG	-0.103
GGTAGTCA	-0.205
CTTCTCTC	0.0461
ACGCCTCG	0.263
CTTAGCTA	-0.139
ACAAGGGT	-0.0591
AGTAGCAC	-0.138
TCATGGAA	-0.00955
GGAACTCA	-0.183
TCATAGGA	-0.0828
AAGGATAG	-0.184

Sequence	PBM E-score
CTGACCGC	0.024
ACATGGGT	-0.17
ACCTTTGA	-0.207
ATCCTCAA	-0.151
ATTACGCG	0.0777
ACGTCATG	0.0391
ACCAGCGA	-0.0336
CGGGTAAC	0.181
GCAATCGA	-0.0333
CAGCCGCA	0.0726
GAATTCAC	0.0616
GTATCCAA	0.0998
CCATGTGA	-0.191
CACCGGAA	0.151
CTCGTTGA	0.277
TCCAATCA	-0.115
AAATTAGA	-0.08
GAAAGTCC	-0.254
ATTGACAG	-0.041
GGTACTAC	0.0611
CTTCGGGC	-0.0609
AGTGGCAT	0.0357
CCACTAAG	-0.13
CGCAGTTC	0.17
AGTAGCCC	-0.197

Sequence	PBM E-score
GCGAAGCA	0.0616
AGATTTTA	-0.266
GGAGGACC	-0.252
TATTGGGA	-0.0384
CCCGATTA	0.0805
CACCGATG	-0.00617
AGACTCAG	-0.118
AGGACTGC	-0.252
CTGCACAG	-0.0509
AGGGATGG	-0.051
TAGCTAAA	0.0517
GGGAAGAC	-0.053
CGGACTAA	-0.0219
AGTTTTGC	0.0511
ACGACGCA	0.412
AATCCCCA	-0.177
CACACCAG	-0.165
CGATATCA	0.171
CACCGTCC	-0.114
